Reference: the supplement of paper PMC10441789
The other results are listed elsewhere or left out. Antibody binding of pooled human sera (four to six donors per pool; dilution not stated) to peptides of the Trypanosoma cruzi antigen TSSA on microarrays. Quantile-normalised fluorescence in arbitrary units, mean of duplicate arrays; higher = more binding. No active / inactive call. The uninfected pools are read here as the healthy donors of the same country. The strongest signals lie near the top of the scale (about 60,000).

These sequences were tested on pooled sera of uninfected people, Colombia (assay: antibody binding signal (normalised fluorescence) (arbitrary fluorescence units); higher = stronger serum antibody binding to peptide).
Protocol: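 Microarray of 15-residue peptides over residues 30-55 of Trypanosoma cruzi TSSAII, each with 1 to 10 substitutions at naturally variable positions, probed with one serum pool per country.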

Sequence | antibody binding signal
PPSGKDKKPAAGETP | 356
TDKKAAAGGAPSPSG | 147
TSSTPPSGTEKKTAT | 118
GTENKPATGETPSPS | 182
KEKKTATGGTPSQPG | 165
SGTDKKPATGEAPSP | 470
KDNKAATGETPSQPG | 261
TDNKAATGGAPSQSG | 209
TPPSGKENKPATGGT | 563
TSSTPPSGKDNKTAA | 205
TSSTPPSGKEKKTAT | 222
KDNKPATGEAPSQSG | 321
KAAAGGAPSQPGASS | 95.2
DKKAATGETPSPPGA | 473
TENKTAAGETPSPSG | 151
KKPATGGTPSQPGAS | 220
GTEKKTATGGAPSPS | 117
PPSGTDNKAATGGAP | 590
NKTAAGETPSQPGAS | 661
GTDNKAAAGGAPSPS | 287

Sequence | antibody binding signal
KKTAAGGAPSPPGAS | 272
DNKPAAGEAPSQPGA | 167
STPPSGTDKKAATGG | 570
GKENKTAAGGTPSQS | 122
GTDKKTAAGGTPSQS | 154
KDNKTAAGGAPSQSG | 180
DNKAAAGGTPSPPGA | 601
KDKKAAAGETPSQPG | 148
GTDKKAATGEAPSPP | 433
GKEKKTATGEAPSPP | 119
GKDNKPAAGEAPSPS | 336
PPSGKEKKTAAGETP | 298
TENKAATGETPSQPG | 232
TISTPPSGKDNKPAT | 188
GTDKKTAAGETPSPS | 483
KENKAAAGEAPSPPG | 152
SGTDKKTAAGGAPSQ | 246
GTEKKPATGETPSQP | 196
NKTATGETPSPPGAS | 641
SGTENKTAAGETPSQ | 340
